Assay results as given in PubChem BioAssay (NCI).
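Where inhibition never reached the appropriate level, the endpoint shown equals the highest concentration tested. Otherwise, values were interpolated linearly from a five-concentration, 48-hour dose response in 96-well plates. Here, GI50 denotes the concentration required for 50% inhibition of growth. TGI marks complete inhibition of growth.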

system: NCI-H322M lung; test: NCI anticancer screen, dose series, 48 h

In order of rising GI50:
1. COc1ccc2c(c1)c(-c1cc(N)n3nc(-c4cn(C)c5ccc(OC)cc45)cc3n1)cn2C  1.84 µM
2. COC[C@]12CC[C@@H](C)[C@H](C)[C@H]1C1=CC[C@@H]3[C@@]4(C)CCCNC(C)(C)[C@@H]4CC[C@@]3(C)[C@]1(C)CC2  1.87 µM
3. CCCCCc1ccc(S(=O)(=O)Nc2cc(-c3csc(NC(=O)CN4CCN(CCO)CC4)n3)ccc2OC)cc1  1.96 µM
4. CN1CCN(Cc2ccc(NC(=O)c3cncc(C#Cc4cnc5[nH]ncc5c4)c3)cc2C(F)(F)F)CC1  3.86 µM
5. O=C(CCCCCCNC(=O)C(O)(O)C(F)(F)F)Nc1ncc(-c2ccccc2)s1  5.11 µM
6. O=C1C(c2ccccc2)=C(N2CCc3ccccc32)OC1(Cl)Cl  16.3 µM

First: O=C(CCCCCCNC(=O)C(O)(O)C(F)(F)F)Nc1ncc(-c2ccccc2)s1
Second: CCCCCc1ccc(S(=O)(=O)Nc2cc(-c3csc(NC(=O)CN4CCN(CCO)CC4)n3)ccc2OC)cc1
The TGI of the first is higher: over 23.5 µM for the first, 4.59 µM for the second.

Going from CN1CCN(Cc2ccc(NC(=O)c3cncc(C#Cc4cnc5[nH]ncc5c4)c3)cc2C(F)(F)F)CC1 to COc1ccc2c(c1)c(-c1cc(N)n3nc(-c4cn(C)c5ccc(OC)cc45)cc3n1)cn2C, the TGI falls from 25.5 µM to 3.61 µM (7.1-fold).

Compared with COC[C@]12CC[C@@H](C)[C@H](C)[C@H]1C1=CC[C@@H]3[C@@]4(C)CCCNC(C)(C)[C@@H]4CC[C@@]3(C)[C@]1(C)CC2, O=C1C(c2ccccc2)=C(N2CCc3ccccc32)OC1(Cl)Cl is 12-fold higher in TGI: 3.52 µM for the first, 43.2 µM for the second.
